# PubChem BioAssay AID588456 (National Center for Advancing Translational Sciences (NCATS), 2011)
# Screen size: about 390,000 compounds; about 55 (0.01%) were called active. Inconclusive results, whose numbers are uncertain, are shown with a selection of clear calls. The call rests on the fitted dose curve; in most records, active means well fitted inhibition curve with a large enough effect; inconclusive means small, poorly fitted or top-dose-only effect; inactive means no such curve, though single readings can be large or run the other way. Where the call is inconclusive, the potency comes from a doubtful curve fit.
# Biological target: Thioredoxin reductase 1, cytoplasmic (Rattus norvegicus) (UniProt O89049)
# Experiment: qHTS Assay for Substrates of Mammalian Selenoprotein Thioredoxin Reductase 1 (TrxR1): qHTS; further: nearly all actives have a fitted effect of over 50% in size
# Settings: purified TrxR1 substrate turnover, NADPH consumption readout; series mostly up to 114 µM
# In short: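 Rat TrxR1, dispensed at 90 nM, was prereduced with 400 uM NADPH (final) for 5 min at ~22 deg C, then incubated with compound 15 min before 400 uM selenite. A first-read NADPH fluorescence drop versus no-compound background flagged substrates.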
# On the % scale 0 is the no-effect control and ±100 the full control effect; potency means the concentration at half of the fitted maximal effect; tags describe the fitted curve by direction and shape.
# UniProt O89049, sequence (O89049 whole entry, looked up): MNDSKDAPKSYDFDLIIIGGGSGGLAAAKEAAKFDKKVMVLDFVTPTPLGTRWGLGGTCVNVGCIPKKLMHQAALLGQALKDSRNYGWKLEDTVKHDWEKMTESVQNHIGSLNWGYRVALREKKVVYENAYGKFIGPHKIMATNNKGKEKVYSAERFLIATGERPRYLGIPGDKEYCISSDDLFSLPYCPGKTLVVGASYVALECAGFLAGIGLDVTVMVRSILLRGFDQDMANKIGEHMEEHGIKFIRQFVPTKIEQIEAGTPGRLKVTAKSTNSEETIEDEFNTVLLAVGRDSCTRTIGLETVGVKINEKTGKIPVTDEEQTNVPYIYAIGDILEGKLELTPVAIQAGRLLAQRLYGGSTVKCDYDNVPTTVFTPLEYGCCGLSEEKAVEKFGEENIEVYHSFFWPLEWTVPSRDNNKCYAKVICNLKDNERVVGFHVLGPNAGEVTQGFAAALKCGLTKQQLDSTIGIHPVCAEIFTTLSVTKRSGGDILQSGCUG
SMILES,Potency,"activity change, negative = substrate turnover"
O=CNC(n1cnc2c(N3CCOCC3)ncnc21)C(Cl)(Cl)Cl (stereo not drawn),"inconclusive: 89.1 µM [inhibitor, single point]",
COc1cc(/C=C2/C(=N)N3N=C(C(C)C)SC3=NC2=O)ccc1OS(=O)(=O)c1ccccc1,inactive,
COCCn1c(=NC(=O)c2ccc3c(c2)OCCO3)sc2cc(S(N)(=O)=O)ccc21,inactive,
Nc1ncnc(Sc2ccc(Cl)cc2)c1[N+](=O)[O-],inactive,
Cc1cc(C(=O)N/N=C/c2ccc(O)c([N+](=O)[O-])c2)n[nH]1,"inconclusive: 56.2 µM [inhibitor, partial curve, poor fit]",
O=c1[nH]c(=S)[nH]c(-c2ccccc2)c1Cc1c(O)ccc2ccccc12,"inconclusive: 29.9 µM [inhibitor, partial curve, poor fit]",
Cc1ccsc1/C=N/NC(=O)CNC(=O)c1c(F)cccc1Cl,"inconclusive: 5.01 µM [inhibitor, partial curve, poor fit]",
CCOc1ccc(/C=N/NC(=O)C(=O)N2CCCCCC2)c2ccccc12,"inconclusive: 79.4 µM [inhibitor, partial curve, poor fit]",
CCNC(=S)/C(=C(/[O-])c1ccc([N+](=O)[O-])cc1)[n+]1ccccc1,"inconclusive: 11.2 µM [inhibitor, partial curve]",
Cc1c(C#N)c(O)[nH]c(=O)c1N=Nc1ccc(Br)cc1C(=O)O,"inconclusive: 56.2 µM [inhibitor, partial curve, poor fit]",
O=C(Nc1ccnn1C1CCN(CCCC2CCCC2)CC1)c1ccccc1Cl,inactive,
Nc1ccc(-c2c3ccc(=O)cc-3oc3cc(O)ccc23)c(C(=O)O)c1,"inconclusive: 89.1 µM [inhibitor, partial curve, poor fit]",
O=C1C=CC(=O)c2c(O)c(N3CCN(CCO)CC3)c(Cl)c(O)c21,active: 56.2 µM,
COc1ccc(-c2nc3ccccc3nc2-c2ccc(OC)c(OC)c2)cc1OC,inactive,
O=[N+]([O-])c1ccc(-c2nc(-c3ccc(F)cc3)c(-c3ccncc3)[nH]2)cc1,"inconclusive: 44.7 µM [inhibitor, partial curve, poor fit]",
O=C(CCCN1C(=O)/C(=C\c2cccs2)SC1=S)Nc1ccc(C(=O)O)cc1,active: 79.4 µM,
Cc1c(N2C(=O)CSC2c2ccco2)c(=O)n(-c2ccccc2)n1C (stereo not drawn),inactive,
CCOc1ccc(NC(=O)NCCCN2CCN(c3ccc(F)cc3)CC2)cc1,inactive,
CC(=O)N1CCc2cc(N=NC3=C(O)CC(C)(C)CC3=O)ccc21,"inconclusive: 89.1 µM [inhibitor, partial curve, poor fit]",
COc1ccc(OC)c(NC(=S)NCc2cccnc2)c1,inactive,
COc1ccccc1Nc1nc(N)nc(CN2CCOCC2)n1,inactive,
CC(C)C(=O)Nc1c(-c2ccccc2F)c(=O)c2ccccc2n1C,"inconclusive: 39.8 µM [inhibitor, partial curve, poor fit]",
O=C(O)c1cc(N/N=C/c2ccncc2)ccc1Cl,"inconclusive: 79.4 µM [inhibitor, partial curve, poor fit]",

SMILES,Potency,"activity change, negative = substrate turnover"
CCC(Cc1ccccc1)NS(=O)(=O)c1ccc2c(c1)NC(=O)CS2 (stereo not drawn),"inconclusive: 89.1 µM [inhibitor, partial curve, poor fit]",
CCc1sc(Nc2cccc(C)c2)nc1-c1cc2cccc(OC)c2oc1=O,inactive,
COc1ccc(NC(=O)C2CCCN(S(=O)(=O)c3ccc(Cl)cc3)C2)cc1 (stereo not drawn),inactive,
CCOc1ccc(NC(=S)NCCN2CCN(Cc3ccccc3)CC2)cc1,"inconclusive: 89.1 µM [inhibitor, partial curve, poor fit]",
Cc1n[nH]c(=O)nc1N/N=C/c1ccc(O)c([N+](=O)[O-])c1,"inconclusive: 79.4 µM [inhibitor, partial curve, poor fit]",
C=CCOc1ccc(C2NC(=S)NC(c3ccccc3)=C2C(C)=O)cc1OC (stereo not drawn),"inconclusive: 89.1 µM [inhibitor, single point]",
O=C(NCC(c1cccnc1)N1CCc2ccccc21)c1cccc(Br)c1 (stereo not drawn),inactive,
O=C(Nc1ccc(F)cc1)Nc1nnc(Cc2ccccc2F)s1,inactive,
CN1c2ccccc2C(O)=C(C(=S)Nc2ccccc2)S1(=O)=O,"inconclusive: 50.1 µM [inhibitor, partial curve, poor fit]",
Cn1c(=O)c2ccccc2n2c(=S)[nH]nc12,inactive,
NS(=O)(=O)c1ccc(NC2=CC(=O)C(=O)c3ccccc32)cc1,"inconclusive: 17.8 µM [inhibitor, partial curve, poor fit]",
CCOC(=O)c1c2c(n(-c3ccc(OC)cc3)c1C)C(=O)C(=O)c1ccccc1-2,active: 56.2 µM,
CCOc1ccc(C(=O)Nc2ccc3nc(SCC(=O)N4CCOCC4)sc3c2)cc1,inactive,
CCc1ccc(C(C(=O)NCc2ccc(F)cc2)N(C(=O)c2csnn2)C2CC2)cc1 (stereo not drawn),"inconclusive: 89.1 µM [inhibitor, partial curve, poor fit]",
Cc1cccc(C)c1NC(=O)CN(C)C(=O)c1ccccc1SCC(=O)N1CCCC1,inactive,
COc1ccc(NC(=S)c2ccncc2)cc1,"inconclusive: 89.1 µM [inhibitor, partial curve, poor fit]",
S=C(c1ccc(N2CCCC2)cc1)N1CCCCC1,inactive,
CCOC(=O)c1c(S(=O)(=O)NCC(=O)NCc2cccc(C)c2)c(C)n(C)c1C,"inconclusive: 89.1 µM [inhibitor, partial curve, poor fit]",
CC(=O)Nc1ccc(NC(=O)c2oc3ccc4c(c3c2C)C(=O)CC(C)(C)O4)cc1,"inconclusive: 25.1 µM [inhibitor, single point]",
Cn1c(=O)n(-c2ccc(Cl)cc2)c(=O)c2c3c(sc21)COC(C)(C)C3,"inconclusive: 89.1 µM [inhibitor, single point]",
CCN1CCS/C1=C\C=C\C1=[N+](CC)CCS1,"inconclusive: 56.2 µM [inhibitor, partial curve, poor fit]",
COc1ccc(N2CCN(CCCNC(=O)c3cnn(-c4ccc(F)cc4)c3-n3cccc3)CC2)cc1,inactive,
O=C1C=C(N(CCO)Cc2ccccc2)c2ccccc2C1=O,"inconclusive: 28.2 µM [inhibitor, partial curve, poor fit]",

SMILES,Potency,"activity change, negative = substrate turnover"
COc1ccc(-c2nc(CSCC(=O)N3CCN(c4ccc(OC)cc4)CC3)c(C)o2)cc1,inactive,
O=C1CCCN1CCCNCC(=O)N1c2ccccc2Sc2ccccc21,inactive,
COc1cc(/C=C2/C(=O)NN(c3ccc(F)cc3)C2=O)cc(Cl)c1O,"inconclusive: 44.7 µM [inhibitor, partial curve, poor fit]",
Cc1cc(C)cc(OCCOCCn2c(-c3ccc(Cl)cc3)nc3ccccc3c2=O)c1,"inconclusive: 89.1 µM [inhibitor, partial curve, poor fit]",
CN1CCS/C1=C\C=C1/SC(=S)N(CC(=O)O)C1=O,"inconclusive: 63.1 µM [inhibitor, partial curve, poor fit]",
COC(=O)c1ccc(NC(=O)c2cc[n+](Cc3ccccc3)cc2)cc1,"inconclusive: 79.4 µM [inhibitor, single point]",
COCc1cc(=O)[nH]c(Nc2nc3ccccc3o2)n1,inactive,
N=C1/C(=C/c2ccc(-c3cccc(C(=O)O)c3)o2)C(=O)N=C2SC(CC(=O)N3CCOCC3)=NN12,"inconclusive: 70.8 µM [inhibitor, partial curve, poor fit]",
Cc1ccc2nc(SCC(=O)NCC3CCCO3)c(C#N)cc2c1 (stereo not drawn),inactive,
COc1ccc(OCC(=O)c2c(O)c3ccccc3oc2=O)cc1,inactive,
Cc1cccc(N(CC(=O)NC2CCCC2)C(=O)c2csnn2)c1C,"inconclusive: 100 µM [inhibitor, single point]",
CC(=O)c1cc(NC(=O)c2ccccc2)c(=O)oc1/C=C/N(C)C,"inconclusive: 28.2 µM [inhibitor, partial curve, poor fit]",
C=CS(=O)(=O)c1sc(Cl)c(N2CCOCC2)c1[N+](=O)[O-],inactive,
C=CCN=c1scc(-c2ccco2)n1/N=C/c1ccc(O)c(O)c1O,inactive,
CCc1ccc(Sc2cc(C(=O)NCc3ccccc3OC)c3ccccc3n2)cc1,inactive,
O=C1NC(=S)SC1=Cc1cccs1,"inconclusive: 89.1 µM [inhibitor, single point]",
O=C1C=C(Nc2ccccc2O)c2ccccc2C1=O,"inconclusive: 79.4 µM [inhibitor, single point]",
CC[C@@H](C)[C@H]1O[C@]2(CC[C@H]1C)C[C@@H]1C[C@@H](CC=C(C)[C@@H](O[C@H]3C[C@H](OC)[C@@H](O[C@H]4C[C@H](OC)[C@@H](O)[C@H](C)O4)[C@H](C)O3)[C@@H](C)C=CC=C3CO[C@@H]4[C@H](O)C(C)=C[C@@H](C(=O)O1)[C@]34O)O2,"inconclusive: 11.2 µM [inhibitor, partial curve]",
Cc1ccnc(SCC(=O)c2cccc([N+](=O)[O-])c2)n1,,inactive: -3.92% [at 11.4 µM]
CC(=O)Nc1cc(OC(C)=O)c2nonc2c1OC(C)=O,"inconclusive: 22.4 µM [inhibitor, single point]",
Nc1nc(SCc2ccc([N+](=O)[O-])cc2)c2ncn([C@@H]3O[C@H](CO)[C@@H](O)[C@H]3O)c2n1,"inconclusive: 42.3 µM [inhibitor, partial curve, poor fit]",
O=C(O)c1[nH]c2ccccc2c1C(c1ccccc1)c1c(C(=O)O)[nH]c2ccccc12,inactive,
